Measured values reported in the supplement of paper PMC6531468.
Some of the results follow. Values come from read counts of a selection and are noisy. Each score is taken over the longer molecules that contain the sequence shown.

Assays:
Experiment in all cases: 6-mer SELEX enrichment z-score vs GST control; IMP3 is the RNA-binding protein IGF2BP3; higher = more enriched by binding
IMP3 KH1-4 = settings: construct: KH1-4 (164-579); SELEX round: R4
Experimental: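 SELEX-seq with GST-tagged IMP3 KH1-4 (Pro164-Lys579) and an N40 RNA pool, round 4. 6-mer z-score of sequence-tag enrichment normalised to the corresponding GST SELEX round; RNA k-mers written as DNA (T for U).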

IMP3 RRM1-2 = settings: construct: RRM1-2 (1-163); SELEX round: R2
Sequence of IMP3 RRM1-2 (chain, as listed by the source): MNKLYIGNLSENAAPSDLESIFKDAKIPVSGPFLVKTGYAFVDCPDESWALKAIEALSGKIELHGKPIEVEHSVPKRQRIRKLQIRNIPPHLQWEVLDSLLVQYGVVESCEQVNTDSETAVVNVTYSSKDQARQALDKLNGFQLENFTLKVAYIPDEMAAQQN
Experimental: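 SELEX-seq with GST-tagged IMP3 RRM1-2 (Met1-Asn163) and an N40 RNA pool, round 2. 6-mer enrichment z-score normalised to GST SELEX. RNA written as DNA (T = U).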

IMP3 full-length = IMP3 full-length (UniProt O00425); settings: construct: FL IMP3 (1-579); SELEX round: R4
Sequence of UniProt O00425 (O00425 whole entry): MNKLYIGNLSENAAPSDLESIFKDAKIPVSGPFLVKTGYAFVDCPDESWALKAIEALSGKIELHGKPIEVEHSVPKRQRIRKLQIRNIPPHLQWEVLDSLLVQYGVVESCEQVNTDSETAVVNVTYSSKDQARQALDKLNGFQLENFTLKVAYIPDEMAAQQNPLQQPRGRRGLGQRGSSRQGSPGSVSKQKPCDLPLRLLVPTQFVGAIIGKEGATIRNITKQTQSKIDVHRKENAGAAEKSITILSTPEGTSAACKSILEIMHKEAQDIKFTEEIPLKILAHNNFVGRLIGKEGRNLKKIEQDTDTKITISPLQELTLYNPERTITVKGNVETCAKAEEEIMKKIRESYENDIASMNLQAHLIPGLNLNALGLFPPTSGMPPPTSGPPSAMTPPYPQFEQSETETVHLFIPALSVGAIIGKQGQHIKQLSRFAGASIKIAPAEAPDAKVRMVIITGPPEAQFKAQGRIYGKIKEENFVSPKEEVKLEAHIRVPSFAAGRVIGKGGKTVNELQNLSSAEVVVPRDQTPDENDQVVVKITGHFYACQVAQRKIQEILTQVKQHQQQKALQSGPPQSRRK
Experimental: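 SELEX-seq with GST-tagged full-length IMP3 and an N40 RNA pool, round 4. Each 6-mer is scored as an enrichment z-score of sequence tags containing it, normalised to the matching GST SELEX round. RNA written as DNA (T = U).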

IMP3 KH1-2 = settings: construct: KH1-2 (164-376); SELEX round: R4
Sequence of IMP3 KH1-2 (chain, as listed by the source): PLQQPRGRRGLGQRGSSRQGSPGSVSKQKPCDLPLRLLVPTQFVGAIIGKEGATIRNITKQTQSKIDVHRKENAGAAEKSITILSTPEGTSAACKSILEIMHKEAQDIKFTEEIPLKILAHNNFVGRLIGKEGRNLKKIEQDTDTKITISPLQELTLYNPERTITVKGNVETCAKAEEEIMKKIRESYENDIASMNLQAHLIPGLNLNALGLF
Experimental: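 SELEX-seq with GST-tagged IMP3 KH1-2 (Pro164-Phe376) and an N40 RNA pool, round 4 (stringent 300/600 mM KCl washes). 6-mer z-score of sequence-tag enrichment normalised to the corresponding GST SELEX round; RNA k-mers written as DNA (T for U).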

IMP3 KH3-4 = settings: construct: KH3-4 (377-579); SELEX round: R4
Sequence of IMP3 KH3-4 (chain, as listed by the source): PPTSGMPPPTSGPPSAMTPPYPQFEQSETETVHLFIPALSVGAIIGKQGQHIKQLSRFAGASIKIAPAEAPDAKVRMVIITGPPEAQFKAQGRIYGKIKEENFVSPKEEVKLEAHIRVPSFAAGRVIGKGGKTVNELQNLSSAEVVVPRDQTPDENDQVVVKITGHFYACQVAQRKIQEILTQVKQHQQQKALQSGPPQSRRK
Experimental: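 SELEX-seq with GST-tagged IMP3 KH3-4 (Pro377-Lys579) and an N40 RNA pool, round 4. 6-mer z-score of sequence-tag enrichment normalised to the corresponding GST SELEX round; RNA k-mers written as DNA (T for U).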

Sequence of IMP3 KH1-4 (chain, as listed by the source): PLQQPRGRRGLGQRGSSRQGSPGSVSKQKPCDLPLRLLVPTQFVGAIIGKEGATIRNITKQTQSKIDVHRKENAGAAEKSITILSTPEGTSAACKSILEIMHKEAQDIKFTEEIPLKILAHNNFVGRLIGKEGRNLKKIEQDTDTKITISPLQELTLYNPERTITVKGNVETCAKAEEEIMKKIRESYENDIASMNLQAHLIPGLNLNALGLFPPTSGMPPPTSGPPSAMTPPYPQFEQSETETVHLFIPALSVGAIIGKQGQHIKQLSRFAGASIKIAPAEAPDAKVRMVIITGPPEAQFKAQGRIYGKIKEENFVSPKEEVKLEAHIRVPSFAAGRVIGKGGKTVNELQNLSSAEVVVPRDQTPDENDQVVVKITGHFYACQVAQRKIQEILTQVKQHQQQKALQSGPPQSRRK

Sequence | 6-mer SELEX enrichment z-score (IMP3 KH1-4) | 6-mer SELEX enrichment z-score (IMP3 RRM1-2) | 6-mer SELEX enrichment z-score (IMP3 full-length) | 6-mer SELEX enrichment z-score (IMP3 KH1-2) | 6-mer SELEX enrichment z-score (IMP3 KH3-4)
ACCAAC | -1.52 | 0.42 | -1.3 | -1.17 | -2.23
TCGTGT | -0.322 | 0.331 | -0.139 | -0.297 | -0.196
CCTCCG | -0.434 | -0.41 | -0.287 | -0.162 | -0.99
CGCCTT | -0.24 | 0.014 | -0.236 | -0.145 | -0.299
GTTCTA | 0.128 | 0.276 | -0.059 | 0.106 | 0.259
GTAGTA | -0.543 | 0.097 | -0.321 | -0.493 | -0.364
GACCTA | -1.29 | -0.896 | -1.33 | -1.15 | -1.26
AAAGCA | -0.675 | -0.238 | -0.534 | -0.796 | -0.567
ATTGCC | 0.066 | -0.233 | -0.278 | 0.02 | -0.194
CCAAGC | -1.72 | -0.235 | -1 | -1.69 | -1.85
CCCTAA | -1.13 | -0.606 | -1.49 | -1.1 | -1.45
TTCTTC | 0.789 | 0.589 | 0.264 | 0.777 | 0.573
CTTGCT | -0.011 | 0.35 | -0.016 | 0.037 | 0.019
CTAATG | 0.127 | -0.264 | -0.494 | -0.007 | 0.242
TAGTCG | 0.545 | 0.393 | 0.484 | 0.362 | 0.479
TTCAAC | 0.405 | 1.16 | 0.733 | 0.525 | 0.145
TGTAAC | 0.07 | -0.392 | -0.478 | -0.129 | 0.066
GTAAGA | -0.161 | -0.739 | -0.645 | -0.211 | 0.235
CGAGCG | -2.16 | -0.036 | -0.156 | -1.92 | -1.81
AGCGTA | -5.06 | -0.632 | -2.98 | -4.7 | -4.55

Sequence | 6-mer SELEX enrichment z-score (IMP3 KH1-4) | 6-mer SELEX enrichment z-score (IMP3 RRM1-2) | 6-mer SELEX enrichment z-score (IMP3 full-length) | 6-mer SELEX enrichment z-score (IMP3 KH1-2) | 6-mer SELEX enrichment z-score (IMP3 KH3-4)
TAGAGG | 0.812 | -0.04 | 0.345 | 0.693 | 1.01
AAGCGG | -0.296 | -0.607 | -0.002 | -0.374 | 0.047
AGCCTC | -0.893 | -0.183 | -0.227 | -0.814 | -1.01
CAAGCT | -0.471 | 0.051 | -0.077 | -0.42 | -0.456
GACGTG | -0.97 | -0.698 | -0.692 | -0.948 | -0.907
ACCTGT | -0.644 | -0.437 | -0.804 | -0.659 | -0.775
TTTCTT | 0.759 | 0.574 | 0.336 | 0.783 | 0.806
AATGTC | -0.062 | -0.336 | -0.232 | -0.308 | -0.108
GAAGAG | 0.235 | -1.12 | -0.554 | 0.092 | 0.378
TTGCAT | 0.737 | 0.437 | 0.486 | 0.502 | 0.553
TACGAG | -1.59 | -0.415 | -0.679 | -1.49 | -1.29
TTTAGG | 0.375 | 0.39 | 0.242 | 0.31 | 0.668
GCTCGG | -0.204 | 0.426 | 0.644 | -0.136 | 0.019
GTGAAC | -0.111 | -0.672 | -0.484 | -0.372 | -0.282
TGCGCA | 0.078 | 0.23 | 0.431 | 0.104 | -0.041
CACCAT | 1.45 | 1.3 | 1.62 | 1.39 | 0.534
GGGCTT | -0.017 | 0.457 | 0.252 | 0.135 | 0.312
CATACT | 0.872 | 0.747 | 0.677 | 1 | 0.756
ACGTAT | -0.497 | -0.252 | -0.47 | -0.558 | -0.36
ATACGG | 1.16 | -0.213 | 0.631 | 0.669 | 1.09

Sequence | 6-mer SELEX enrichment z-score (IMP3 KH1-4) | 6-mer SELEX enrichment z-score (IMP3 RRM1-2) | 6-mer SELEX enrichment z-score (IMP3 full-length) | 6-mer SELEX enrichment z-score (IMP3 KH1-2) | 6-mer SELEX enrichment z-score (IMP3 KH3-4)
CCACGA | -1.72 | -0.395 | -1.22 | -1.68 | -2.01
GTTGAA | -0.411 | -0.565 | -0.607 | -0.462 | -0.255
CGGGGG | 0.757 | -0.059 | 0.555 | 1.68 | 0.85
GAAGGG | 0.586 | -0.433 | 0.096 | 0.797 | 0.874
AATAGC | 0.176 | -0.404 | -0.266 | 0.204 | 0.425
TTCAGT | 0.782 | 0.742 | 0.873 | 0.721 | 0.666
AAGACA | 0.626 | -0.178 | -0.226 | 0.433 | 0.858
AAATTG | 0.02 | -1.1 | -1.03 | -0.19 | 0.594
TTGTGA | 0.167 | -0.164 | -0.436 | -0.058 | 0.281
AGGCCA | 1.01 | 0.135 | 0.816 | 0.77 | 1.2
GTCAGG | 0.483 | 0.233 | 0.757 | 0.449 | 0.473
GAAGGA | 0.85 | -1.05 | -0.261 | 0.564 | 0.868
ACCCCA | -1.13 | -1.03 | -1.37 | -1.08 | -2.06
GCACAG | 1.04 | 0.959 | 2.12 | 0.867 | 0.602
ACCATT | 1.07 | 1.11 | 0.698 | 0.947 | 0.66
TAGCTT | -0.084 | 0.285 | -0.068 | -0.011 | 0.128
AATAAC | 1.6 | -0.973 | -0.227 | 2 | 2.57
TACCTG | -1.31 | -0.422 | -1.06 | -1.16 | -1.24
CAATGG | 0.229 | 0.181 | 0.328 | 0.006 | 0.177
TAACTC | -0.285 | 0.006 | -0.539 | -0.085 | -0.261
